According to article PMC5660122 (2017):

How the values were obtained:
Test in all cases: SPR
[1] = biological target: 2V-BB11-2V (Squalus acanthias)
[2] = biological target: 2V-BA11-2V (Squalus acanthias)
[3] = biological target: 2V-E06-2V (Squalus acanthias | dogfish)
[4] = biological target: humanized E06 BA11
[5] = biological target: humanized E06 v2.4-2G
[6] = biological target: humanized E06 BB11
humanized E06 BB11, sequence (P07724 25-608): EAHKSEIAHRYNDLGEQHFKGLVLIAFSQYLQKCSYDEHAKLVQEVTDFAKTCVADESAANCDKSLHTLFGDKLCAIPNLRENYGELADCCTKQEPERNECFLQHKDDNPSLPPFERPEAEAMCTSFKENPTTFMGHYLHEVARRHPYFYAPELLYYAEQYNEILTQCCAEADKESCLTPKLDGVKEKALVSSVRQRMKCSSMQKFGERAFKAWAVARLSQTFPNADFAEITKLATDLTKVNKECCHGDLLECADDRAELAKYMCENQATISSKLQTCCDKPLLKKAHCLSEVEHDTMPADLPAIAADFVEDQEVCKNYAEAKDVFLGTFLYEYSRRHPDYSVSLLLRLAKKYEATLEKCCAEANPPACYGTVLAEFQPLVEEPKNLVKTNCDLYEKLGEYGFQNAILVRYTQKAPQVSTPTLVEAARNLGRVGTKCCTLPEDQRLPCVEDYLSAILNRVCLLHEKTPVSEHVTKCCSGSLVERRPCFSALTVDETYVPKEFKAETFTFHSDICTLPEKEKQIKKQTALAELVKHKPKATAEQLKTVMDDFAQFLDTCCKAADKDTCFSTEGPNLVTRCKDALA

humanized E06 v2.4-2G, sequence (P07724 25-608): as above
humanized E06 BA11, sequence (P07724 25-608): as above

Kd [1]: 0.38 nM
koff [1]: 0.00414 s⁻¹
Kd [2]: 53.6 nM
koff [2]: 0.00154 s⁻¹
Kd [3]: 0.42 nM
koff [3]: 0.000771 s⁻¹
Kd [4]: 99 nM
Kd [5]: 2.15 nM
Kd [6]: 5.39 nM
B1: mouse serum albumin (natural protein)
chain: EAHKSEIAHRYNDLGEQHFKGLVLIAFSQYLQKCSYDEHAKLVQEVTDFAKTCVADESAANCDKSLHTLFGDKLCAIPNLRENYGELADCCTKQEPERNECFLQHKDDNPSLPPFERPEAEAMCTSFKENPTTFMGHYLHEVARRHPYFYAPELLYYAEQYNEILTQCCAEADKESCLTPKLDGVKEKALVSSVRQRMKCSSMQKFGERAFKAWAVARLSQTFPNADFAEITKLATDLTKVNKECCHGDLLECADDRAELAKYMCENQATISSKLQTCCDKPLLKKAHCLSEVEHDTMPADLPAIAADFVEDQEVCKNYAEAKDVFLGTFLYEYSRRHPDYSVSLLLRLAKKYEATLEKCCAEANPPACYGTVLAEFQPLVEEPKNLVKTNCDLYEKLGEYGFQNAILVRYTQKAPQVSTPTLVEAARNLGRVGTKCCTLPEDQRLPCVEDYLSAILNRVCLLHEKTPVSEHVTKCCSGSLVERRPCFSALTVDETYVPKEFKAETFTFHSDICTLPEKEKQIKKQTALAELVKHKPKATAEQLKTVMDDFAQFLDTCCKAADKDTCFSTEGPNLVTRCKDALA
